Experimental findings from ChEMBL document CHEMBL4888484, “Replenishing the malaria drug discovery pipeline: Screening and hit evaluation of the MMV Hit Generation Library 1 (HGL1) against asexual blood stage Plasmodium falciparum ,using a nano luciferase reporter read-out” (2022) are described below.

As a reminder, the % Inhibition is the change of the read-out against control, counted positive when it falls.

Among all 150,000 compounds or so, about 540 (0.36%) showed an effect of 50% or more. The list shows a part of the results.

The assay has as its system Plasmodium falciparum. The assay is described as follows: Primary screen in NF54 nanoGlo assay, in single point, at 2uM, 72h; a lower Z score goes with more inhibition. Conditions: timepoint 72 hour. Type of assay: functional, Erythrocyte.
As for `Cn1cc([C@H]2CC3(C)NC(=O)C2C(=O)N3)c2ccccc21`, the “% Inhibition” value was -5% and the Z score amounted to 0.64.
Taken in the same sequence, the figures for `CC(C)(C)C1CNC(=O)C1C(=O)NCC1CCOCC1` (stereo unspecified) were 2% and -0.27.
The matching figures for `CCOC(=O)C1CCC(Nc2ccc3c(c2)N(C(N)=O)CCC3)CC1` (stereo unspecified): 1% and -0.16.
On to `COCc1cc(CNC2C(C)C(OC)C2(C)C)ccc1F` (stereo unspecified), for which the “% Inhibition” value is reported as -4% and the Z score is recorded as 0.47.
Taken in the same sequence, the figures for `Cc1cc(C(=O)NCC(C)(C)C[C@H](C)O)no1` were -3% and 0.43.
Turning to `C[C@@H]1CN(Cc2ccc(C#CCO)cc2)CC[C@]1(C)O`, the “% Inhibition” value is -26% and the Z score is given as 3.33.
For the compound `O=S(=O)(Nc1nc2n(n1)[C@H](c1ccc(Cl)cc1)C=C(c1ccccc1)N2)c1ccccc1`, the “% Inhibition” value was -7% and the Z score was 0.7.
The matching figures for `CCn1ccc(C(=O)NCCc2ncc(C)n2C2CCC2)n1`: -8% and 1.23.
The matching figures for `COc1ncccc1C(=O)N1CC(Nc2cccnn2)C1`: 2% and -0.37.
The matching figures for `Cc1noc(C)c1CO[C@H]1COCC[C@@H]1NC(=O)Cn1nc2ccccc2n1`: -7% and 0.68.
For `Cc1ccc(C)c(S(=O)(=O)N2CCC(c3nc(C(=O)N4CCOCC4)c(C)o3)CC2)c1`, the “% Inhibition” value was -1% and the Z score was found to be 0.22.
Taken in the same sequence, the figures for `CC1CCCCN1CCN1C(=O)c2ccc(-c3ccco3)n2CC1(C)C(=O)NC1CCCCCC1` (stereo unspecified) were -7% and 0.69.
With `CC(CO)C(C)NC(=O)c1c(F)c(F)cc(F)c1F` (stereo unspecified), the “% Inhibition” value is on record as -12% and the Z score was 1.81.
Taken in the same sequence, the figures for `CCOCc1nc(Cc2cccnc2)n(-c2ccc(S(N)(=O)=O)cc2)n1` were -12% and 1.79.
The matching figures for `Cc1ccc(C)c(S(=O)(=O)N2CCN3C(=O)[C@H](C(C)C)NC(=O)[C@H]3C2)c1`: -3% and 0.31.
Taken in the same sequence, the figures for `COCc1csc(NC(=O)NCCc2ncc(C)s2)n1` were -12% and 1.22.
Turning to `COc1cc(C(=O)Nc2cccc(C)n2)ccc1OCc1c(Cl)cccc1Cl`, the “% Inhibition” value is listed as -14% and the Z score stood at 1.63.
As to `Cc1cc(C)c(-n2cccc2CNC2CCN(C)CC2)c(C)c1`, the “% Inhibition” value is 5% and the Z score was -0.85.
Taken in the same sequence, the figures for `O=C1N(CC2CCCCC2)CCC[C@@]1(O)CN1CCOCC1` were -7% and 1.35.
As to `CN(C)S(=O)(=O)N(CC#N)Cc1ncc(Cl)cc1Cl`, the “% Inhibition” value turned out to be 5% and the Z score is -0.76.
The matching figures for `O=S(=O)(CCC(F)(F)F)NCCn1ccc(-c2cnccn2)n1`: 14% and -1.84.
Taken in the same sequence, the figures for `CC(C)[C@H]1NC(=O)[C@@H]2C[C@H](NC(=O)c3cccc4ccccc34)CN2C1=O` were -16% and 1.82.
Take `Clc1ccccc1CNC[C@H]1Cn2ccnc2CO1`: the “% Inhibition” value was -9% and the Z score is 1.41.
Taken in the same sequence, the figures for `Cc1cc(CN(C)Cc2cc3cccnc3nc2C)n[nH]1` were -5% and 0.77.
`COc1cccn2ncc(C(=O)NC[C@]3(C)C[C@H]3c3ccccc3)c12`: the “% Inhibition” value is given as -10% and the Z score is given as 1.96.
The matching figures for `Cc1noc([C@H]2CCCN(C(=O)c3cc4ccccc4s3)C2)n1`: 0% and 0.02.
On to `CCN(C(=O)c1oc(C2CC2)nc1C)c1ccc(C(F)(F)F)cc1`, for which the “% Inhibition” value was -5% and the Z score was determined as 0.99.
Consider `Cc1nc(N)sc1CC(=O)N1CCn2nc(C(=O)N3CCCC3)cc2C1`, for which the “% Inhibition” value is recorded as -14% and the Z score is recorded as 1.93.
Taken in the same sequence, the figures for `CC[C@H](NC(=O)N(C)Cc1nccs1)c1ncnn1CC` were 1% and -0.22.
Consider `Oc1cc(CNCCCN2Cc3ccccc3C2)nc2c(F)cccc12`, for which the “% Inhibition” value was found to be 5% and the Z score is listed as -0.86.
Taken in the same sequence, the figures for `COCCc1nc(-c2cc3ncccn3n2)n(CCO)n1` were -8% and 1.63.
Taken in the same sequence, the figures for `Cn1nc(C(=O)N[C@H]2CCCc3ccccc32)ccc1=O` were -4% and 0.36.
The matching figures for `CC[C@@H](C(=O)Nc1ccccc1C(F)(F)F)n1nc(-c2ccc(OC)cc2)c2c(C)onc2c1=O`: -9% and 0.91.
`Cc1nnnn1-c1ccccc1Oc1ccc(F)cc1`: the “% Inhibition” value is given as -10% and the Z score came to 0.98.
The matching figures for `CC(=O)N1CCCN(C(=O)C[C@]2(c3ccccc3)CC(=O)N(CCCOc3cccnc3)C2=O)CC1`: 8% and -1.08.
Turning to `COC(=O)COc1cc(-c2ccc(Cl)cc2)nc2ccc(NC(=O)Nc3ccccc3C)cc12`, the “% Inhibition” value stood at 8% and the Z score is -0.91.
Taken in the same sequence, the figures for `CC(=O)N[C@@H](Cc1c[nH]c2ccccc12)C(=O)N1CCN(S(=O)(=O)c2ccccc2)CC1` were 17% and -2.38.
The matching figures for `CN1CCN([C@@H]2[C@H](O)[C@H](CO)O[C@@H]2CNC(=O)Nc2ccccc2)CC1`: 34% and -3.84.
Taken in the same sequence, the figures for `c1ccc(C2(c3nnc(CC4CCCCC4)o3)CCOCC2)cc1` were -15% and 2.41.
Consider `CCCCCN1CC(=O)N[C@@H]1c1ccc(OC)c(C#N)c1`, for which the “% Inhibition” value was -5% and the Z score was 0.95.
Taken in the same sequence, the figures for `Cc1nc(CNC(=O)N2CCC[C@H](CC(C)C)C2)oc1C` were -2% and 0.24.
Taken in the same sequence, the figures for `CC(C)O[C@H]1CN(C(=O)COc2ccc(Cl)cc2Cl)C[C@@H]1O` were 7% and -1.02.
As for `Cc1c(NC(=O)[C@@H](N)Cc2ccccc2)cccc1-c1nncn1C`, the “% Inhibition” value is given as -3% and the Z score is 0.66.
Taken in the same sequence, the figures for `c1ccc(CN2CCN(C3CCCCCC3)CC2)nc1` were 4% and -0.78.
Turning to `Cc1cccc(OC[C@@H](O)CN(C(=O)NCCCn2ccnc2)C(C)C)c1`, the “% Inhibition” value was -2% and the Z score stood at 0.32.
The matching figures for `C[C@@H]1CN(CCN(C)C(=O)c2cc(F)cc(Cl)c2O)C[C@H](C)O1`: -6% and 1.14.
For the compound `Cc1cc(-n2ccnc2)ccc1COC(=O)c1ncccc1OCC(F)(F)F`, the “% Inhibition” value was -8% and the Z score came out at 1.52.
The matching figures for `O=C(O)c1cn2c(n1)[C@@H](c1ccccc1)N(C(=O)COc1ccccc1)CC2`: -8% and 1.23.
The matching figures for `Cc1cccc2c1NC1(CCN(C(=O)Nc3ccc(Cl)c(Cl)c3)CC1)NC2=O`: 11% and -2.18.
Taken in the same sequence, the figures for `CNC(=O)CCCN(C)C(=O)Cc1ccc(C)c(Br)c1` were -7% and 0.93.
For the compound `CC(C)NC(=O)OC1CN(C(=O)c2cc(-c3ccc(F)cc3)[nH]n2)C1`, the “% Inhibition” value was 10% and the Z score was -1.04.
For `O=S1(=O)CC[C@H](c2csc(Cc3cccc(F)c3)n2)C1`, the “% Inhibition” value is given as -12% and the Z score was found to be 1.92.
With `CCCCn1nc(-c2ccncc2)nc1CN1CCC[C@H](O)C1`, the “% Inhibition” value is on record as -10% and the Z score was 1.17.
